# The other results are listed elsewhere or left out.
# B1: Na-CTL-1 (Necator americanus) (protein)
# chain: MQRSFLLLLVVLAGAWAVNTTIPLKLMGGFTPMKYQCVGRVSDIWADVLFLIESSDMITKSGFRQVIAFITATTKKMTIGQDEKQTRVGFITYGEEAKLIYDLDHWRSTEKLSDLVQKIPYVKSSGTNIAAAIALANKVFNSPTHRPNVPKVMVIVANGLKKGSQNPIPVATAFKDFGGIIITIEYTQYDNIQVPILKKIASEGYNIRSNDEDFSVRTLTNMLLQANCFCPDHYVPFRVNNPEFGCFVTAKIPSMWRDAAEMCRAVEEGKLVKVENEEKAAFIMKLVGPKKEAWIGLRYYGNKFQWTDGTKLNADDFNLWPEDIKELNGPHCVSMYQDQKDKKYYWRAGKCLEDMRYVCEVQPCSASNYCSEPVFMYRQKHRALLPAPPPPPN
# What was measured:
# Assay in all cases: glycan array binding signal (z-score within array); higher = stronger binding
# Settings in all cases: glycan notation: IUPAC condensed, linker removed
# Fuc(a1-2)Gal = target: Fuc(a1-2)Gal
# Summary of the method: (§1)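 The Consortium for Functional Glycomics database supplied 3228 glycan arrays, of which those lacking an available protein sequence were dropped. The binding signal, a within-array Z-score, was averaged across arrays of the same protein sequence and across linkers. Negative scores can be read as non-binding.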
# Fuc(a1-2)Gal(b1-3)GalNAc = target: Fuc(a1-2)Gal(b1-3)GalNAc
# Summary of the method: as §1
# [1] = target: Fuc(a1-2)Gal(b1-3)GalNAc(a1-3)[Fuc(a1-2)]Gal(b1-4)Glc
# Summary of the method: as §1
# [2] = target: Fuc(a1-2)Gal(b1-3)GalNAc(a1-3)[Fuc(a1-2)]Gal(b1-4)GlcNAc
# Summary of the method: as §1
# [3] = target: Fuc(a1-2)Gal(b1-3)GalNAc(b1-3)Gal
# Summary of the method: as §1
# [4] = target: Fuc(a1-2)Gal(b1-3)GalNAc(b1-3)Gal(a1-4)Gal(b1-4)Glc
# Summary of the method: as §1
# [5] = target: Fuc(a1-2)Gal(b1-3)GalNAc(b1-4)[Neu5Ac(a2-3)]Gal(b1-4)Glc
# Summary of the method: as §1
# Fuc(a1-2)Gal(b1-3)GlcNAc = target: Fuc(a1-2)Gal(b1-3)GlcNAc
# Summary of the method: as §1
# [6] = target: Fuc(a1-2)Gal(b1-3)GlcNAc(b1-2)Man(a1-3)[Fuc(a1-2)Gal(b1-3)GlcNAc(b1-2)Man(a1-6)]Man(b1-4)GlcNAc(b1-4)GlcNAc
# Summary of the method: as §1
# [7] = target: Fuc(a1-2)Gal(b1-3)GlcNAc(b1-2)Man(a1-3)[Fuc(a1-2)Gal(b1-3)GlcNAc(b1-2)Man(a1-6)]Man(b1-4)GlcNAc(b1-4)[Fuc(a1-6)]GlcNAc
# Summary of the method: as §1
# [8] = target: Fuc(a1-2)Gal(b1-3)GlcNAc(b1-3)Gal(b1-4)Glc
# Summary of the method: as §1
# [9] = target: Fuc(a1-2)Gal(b1-3)GlcNAc(b1-3)GalNAc
# Summary of the method: as §1
# [10] = target: Fuc(a1-2)Gal(b1-3)GlcNAc(b1-3)[Fuc(a1-2)Gal(b1-3)GlcNAc(b1-6)]GalNAc
# Summary of the method: as §1
# [11] = target: Fuc(a1-2)Gal(b1-3)GlcNAc(b1-3)[Gal(b1-4)GlcNAc(b1-6)]Gal(b1-4)Glc
# Summary of the method: as §1
# [12] = target: Fuc(a1-2)Gal(b1-3)GlcNAc(b1-3)[Neu5Ac(a2-6)Gal(b1-4)GlcNAc(b1-6)]Gal(b1-4)Glc
# Summary of the method: as §1
# [13] = target: Fuc(a1-2)Gal(b1-3)GlcNAc6S
# Summary of the method: as §1
# [14] = target: Fuc(a1-2)Gal(b1-3)[Fuc(a1-4)]GlcNAc
# Summary of the method: as §1
# [15] = target: Fuc(a1-2)Gal(b1-3)[Fuc(a1-4)]GlcNAc(b1-2)Man(a1-3)[Fuc(a1-2)Gal(b1-3)[Fuc(a1-4)]GlcNAc(b1-2)Man(a1-3)]Man(b1-4)GlcNAc(b1-4)GlcNAc
# Summary of the method: as §1
# [16] = target: Fuc(a1-2)Gal(b1-3)[Fuc(a1-4)]GlcNAc(b1-2)Man(a1-3)[Fuc(a1-2)Gal(b1-3)[Fuc(a1-4)]GlcNAc(b1-2)Man(a1-6)]Man(b1-4)GlcNAc(b1-4)[Fuc(a1-6)]GlcNAc(b1-4)[Fuc(a1-6)]GlcNAc
# Summary of the method: as §1
# [17] = target: Fuc(a1-2)Gal(b1-3)[Fuc(a1-4)]GlcNAc(b1-3)[Fuc(a1-3)[Gal(b1-4)]GlcNAc(b1-6)]Gal(b1-4)Glc
# Summary of the method: as §1
# [18] = target: Fuc(a1-2)Gal(b1-3)[Fuc(a1-4)]GlcNAc(b1-3)[Gal(b1-4)GlcNAc(b1-6)]Gal(b1-4)Glc
# Summary of the method: as §1
# Fuc(a1-2)Gal(b1-4)Glc = target: Fuc(a1-2)Gal(b1-4)Glc
# Summary of the method: as §1
# Fuc(a1-2)Gal(b1-4)Glc6S = target: Fuc(a1-2)Gal(b1-4)Glc6S
# Summary of the method: as §1
# Fuc(a1-2)Gal(b1-4)GlcNAc = target: Fuc(a1-2)Gal(b1-4)GlcNAc
# Summary of the method: as §1
# [19] = target: Fuc(a1-2)Gal(b1-4)GlcNAc(b1-2)Man
# Summary of the method: as §1
# [20] = target: Fuc(a1-2)Gal(b1-4)GlcNAc(b1-2)Man(a1-3)[Fuc(a1-2)Gal(b1-4)GlcNAc(b1-2)Man(a1-6)]Man(b1-4)GlcNAc(b1-4)GlcNAc
# Summary of the method: as §1
# [21] = target: Fuc(a1-2)Gal(b1-4)GlcNAc(b1-2)Man(a1-3)[Fuc(a1-2)Gal(b1-4)GlcNAc(b1-2)Man(a1-6)]Man(b1-4)GlcNAc(b1-4)[Fuc(a1-6)]GlcNAc
# Summary of the method: as §1
# [22] = target: Fuc(a1-2)Gal(b1-4)GlcNAc(b1-2)[Fuc(a1-2)Gal(b1-4)GlcNAc(b1-4)]Man(a1-3)[Fuc(a1-2)Gal(b1-4)GlcNAc(b1-2)Man(a1-6)]Man(b1-4)GlcNAc(b1-4)GlcNAc
# Summary of the method: as §1
# [23] = target: Fuc(a1-2)Gal(b1-4)GlcNAc(b1-3)Gal(b1-4)GlcNAc
# Summary of the method: as §1
# [24] = target: Fuc(a1-2)Gal(b1-4)GlcNAc(b1-3)Gal(b1-4)GlcNAc(b1-2)Man(a1-3)[Fuc(a1-2)Gal(b1-4)GlcNAc(b1-3)Gal(b1-4)GlcNAc(b1-2)Man(a1-6)]Man(b1-4)GlcNAc(b1-4)GlcNAc
# Summary of the method: as §1
# [25] = target: Fuc(a1-2)Gal(b1-4)GlcNAc(b1-3)Gal(b1-4)GlcNAc(b1-3)Gal(b1-4)GlcNAc
# Summary of the method: as §1
# [26] = target: Fuc(a1-2)Gal(b1-4)GlcNAc(b1-3)GalNAc
# Summary of the method: as §1
# [27] = target: Fuc(a1-2)Gal(b1-4)GlcNAc(b1-3)[Fuc(a1-2)Gal(b1-4)GlcNAc(b1-6)]GalNAc
# Summary of the method: as §1
# [28] = target: Fuc(a1-2)Gal(b1-4)GlcNAc(b1-3)[Fuc(a1-3)[Gal(b1-4)]GlcNAc(b1-6)]Gal(b1-4)Glc
# Summary of the method: as §1
# [29] = target: Fuc(a1-2)Gal(b1-4)GlcNAc(b1-6)GalNAc
# Summary of the method: as §1
# [30] = target: Fuc(a1-2)Gal(b1-4)GlcNAc6S
# Summary of the method: as §1
# [31] = target: Fuc(a1-2)Gal(b1-4)[Fuc(a1-3)]GlcNAc
# Summary of the method: as §1
# [32] = target: Fuc(a1-2)Gal(b1-4)[Fuc(a1-3)]GlcNAc(b1-2)Man(a1-3)[Fuc(a1-2)Gal(b1-4)[Fuc(a1-3)]GlcNAc(b1-2)Man(a1-6)]Man(b1-4)GlcNAc(b1-4)[Fuc(a1-6)]GlcNAc
# Summary of the method: as §1
# [33] = target: Fuc(a1-2)Gal(b1-4)[Fuc(a1-3)]GlcNAc(b1-2)[Fuc(a1-2)Gal(b1-4)[Fuc(a1-3)]GlcNAc(b1-4)]Man(a1-3)[Fuc(a1-2)Gal(b1-4)[Fuc(a1-3)]GlcNAc(b1-2)Man(a1-6)]Man(b1-4)GlcNAc(b1-4)GlcNAc
# Summary of the method: as §1
# [34] = target: Fuc(a1-2)Gal(b1-4)[Fuc(a1-3)]GlcNAc(b1-3)Gal(b1-4)[Fuc(a1-3)]GlcNAc
# Summary of the method: as §1
# [35] = target: Fuc(a1-2)Gal(b1-4)[Fuc(a1-3)]GlcNAc(b1-3)Gal(b1-4)[Fuc(a1-3)]GlcNAc(b1-3)Gal(b1-4)[Fuc(a1-3)]GlcNAc
# Summary of the method: as §1
# [36] = target: Fuc(a1-2)Gal(b1-4)[Fuc(a1-3)]GlcNAc(b1-3)GalNAc
# Summary of the method: as §1
# [37] = target: Fuc(a1-2)Gal(b1-4)[Fuc(a1-3)]GlcNAc(b1-3)[Neu5Ac(a2-6)Gal(b1-4)GlcNAc(b1-6)]Gal(b1-4)Glc
# Summary of the method: as §1
# [38] = target: Fuc(a1-2)Gal3S(b1-4)GlcNAc
# Summary of the method: as §1
# [39] = target: Fuc(a1-2)Gal6S(b1-3)GlcNAc
# Summary of the method: as §1
binder,measurement,setting,value
B1,glycan array binding signal (z-score),Fuc(a1-2)Gal,0.439
same,glycan array binding signal (z-score),Fuc(a1-2)Gal(b1-3)GalNAc,-0.381
same,glycan array binding signal (z-score),[1],-0.342
same,glycan array binding signal (z-score),[2],-0.486
same,glycan array binding signal (z-score),[3],-0.258
same,glycan array binding signal (z-score),[4],-0.262
same,glycan array binding signal (z-score),[5],-0.018
same,glycan array binding signal (z-score),Fuc(a1-2)Gal(b1-3)GlcNAc,-0.44
same,glycan array binding signal (z-score),[6],-0.558
same,glycan array binding signal (z-score),[7],0.162
same,glycan array binding signal (z-score),[8],0.011
same,glycan array binding signal (z-score),[9],-0.349
same,glycan array binding signal (z-score),[10],-0.132
same,glycan array binding signal (z-score),[11],-0.506
same,glycan array binding signal (z-score),[12],-0.174
same,glycan array binding signal (z-score),[13],0.067
same,glycan array binding signal (z-score),[14],-0.101
same,glycan array binding signal (z-score),[15],0.066
same,glycan array binding signal (z-score),[16],0.042
same,glycan array binding signal (z-score),[17],-0.482
same,glycan array binding signal (z-score),[18],-0.459
same,glycan array binding signal (z-score),Fuc(a1-2)Gal(b1-4)Glc,0.537
same,glycan array binding signal (z-score),Fuc(a1-2)Gal(b1-4)Glc6S,0.036
same,glycan array binding signal (z-score),Fuc(a1-2)Gal(b1-4)GlcNAc,-0.311
same,glycan array binding signal (z-score),[19],0.123
same,glycan array binding signal (z-score),[20],-0.331
same,glycan array binding signal (z-score),[21],-0.327
same,glycan array binding signal (z-score),[22],0.435
same,glycan array binding signal (z-score),[23],0.149
same,glycan array binding signal (z-score),[24],-0.006
same,glycan array binding signal (z-score),[25],-0.372
same,glycan array binding signal (z-score),[26],-0.572
same,glycan array binding signal (z-score),[27],-0.753
same,glycan array binding signal (z-score),[28],0.038
same,glycan array binding signal (z-score),[29],-0.5
same,glycan array binding signal (z-score),[30],-0.775
same,glycan array binding signal (z-score),[31],-0.236
same,glycan array binding signal (z-score),[32],0.449
same,glycan array binding signal (z-score),[33],-0.27
same,glycan array binding signal (z-score),[34],0.013
same,glycan array binding signal (z-score),[35],-0.334
same,glycan array binding signal (z-score),[36],0.056
same,glycan array binding signal (z-score),[37],-0.57
same,glycan array binding signal (z-score),[38],-0.06
same,glycan array binding signal (z-score),[39],-0.672

# — the supplement of paper PMC8728848
